# According to PMC12136788:
# The list shows a part of the results.
# T1: UNK ZnF1-3 (human, UniProt Q9C0B0 31-174)
# T1 sequence: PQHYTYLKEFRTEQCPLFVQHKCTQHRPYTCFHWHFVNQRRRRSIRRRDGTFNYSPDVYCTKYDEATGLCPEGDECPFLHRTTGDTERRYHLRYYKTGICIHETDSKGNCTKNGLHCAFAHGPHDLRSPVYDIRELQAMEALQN
# B1: chr5:111654635:111654636:+_ENSMUSG00000033209_ENSMUST00000156290|mus_hu|FALSE|FALSE (ssRNA)
# RNA: GGGAGUUCUACAGUCCGACGAUCCAGACUUCCCAGCUCUCCAUAGGCCUGGGCUUUAUUGAAGGCCUCUCCAAGUUCAUGAGCAACCACGAGCCUCUUUUCAAAGCACACAAGGGCUUGCUGCAAGCUCCCCAUUGCCCUGUGCAACAGAGGAUUGAGCAUCA
# B2: 108150678_108154337_475_3pUTR_ENSG00000110851_ENST00000228437|human|control|control (ssRNA)
# RNA: GGGAGUUCUACAGUCCGACGAUCAUUGCUCACAGAGGAUGAAGUCAGCUGCUCCAUCCCCACUGGACUCAGGUUCAUUUCAUUCAUCCUGUGAUGCAUCGGCUUGGGGCCAAAUAUCAGAGAAAGGAGCGCUCGGGUGGUGGGCAACAGAGGAUUGAGCAUCA
# B3: chr4:95690885:95690886:+_ENSMUSG00000028572_ENSMUST00000156910|mus_mus|mus_mus_mus_hu_False|18_108 (ssRNA)
# RNA: GGGAGUUCUACAGUCCGACGAUCUUUAUUUUUAGAAAAAUACCAUGCUAAAAUAUUUUCAAAGGCUUAUUUUAUUUUACCAGAAGUCACAGGCAAGCAGACACUACAAGAAUAUAUAAAUACAAACCUCAACAAUAUAACUGUCAACAGAGGAUUGAGCAUCA
# B4: chr7:63240916:63240917:-_ENSMUSG00000047037_ENSMUST00000052204|mus_hu|FALSE|FALSE (ssRNA)
# RNA: GGGAGUUCUACAGUCCGACGAUCUAGCAGGCACCCCAACUUGCCCAAGAUGUUGAGCUUUUCCUUCAGGAGAUAGGAAGCUAAAAUGGACCCGAACGGUACUCCAAGGGCGCCCAGGGGGGUUACCAGGACCGUGGGGACCGCCAACAGAGGAUUGAGCAUCA
# B5: chr22:32879901:32879902:+_ENSG00000100225_ENST00000397426|hu_mus|hu_hu_hu_mus_False|48_48 (ssRNA)
# RNA: GGGAGUUCUACAGUCCGACGAUCCUCUUCCAUACUCAUGGCAUCCUGAAUUGACUCAGCUUCAACAUUUUGACUAGGCCCUUCCAUACUGUCGUCAGUCCAGGCAUCAAAUGGGGUGGCCUGUCCUUGGGAUGAAUCAGUCCCCAACAGAGGAUUGAGCAUCA
# B6: chr2:181367561:181367562:+_ENSMUSG00000002455_ENSMUST00000002529|mus_mus|FALSE|FALSE (ssRNA)
# RNA: GGGAGUUCUACAGUCCGACGAUCAACACGCUUCUUUGCUCGAAUGUCUGUUUCUAGCUCUGCUGCUCUGAUGUAAAUCCUAACAGACUGCGGGAGAUGACGGACAGCUUGUGCCACCACAGCCUUGGCUGUGUCCCCAGGCUGCAACAGAGGAUUGAGCAUCA
# B7: chr2:32445735:32445736:+_ENSG00000152683_ENST00000406369|hu_hu|FALSE|FALSE (ssRNA)
# RNA: GGGAGUUCUACAGUCCGACGAUCUCAAUAUUCCUUAUAAAAAUAAGUUAGAGUCUAUCAUGGUCUUGGUUGUCCAAUUCUAUUAUUAGUUCCAUAUCUACUUGGUAUAUUUGUAAAACCAGUCCUCAAUCCUUGAGUUGCUCCCAACAGAGGAUUGAGCAUCA
# B8: chr2:171811166:171811167:+_ENSG00000115806_ENST00000234160|hu_hu|FALSE|FALSE (ssRNA)
# RNA: GGGAGUUCUACAGUCCGACGAUCUCCUUCCUCAAAUGGGCGUGUAGGUAUUCGAUGCAAAUAACCAUAUCCAAUGCCACAUCCUAGGCUGCCUUCUCCACCCCAUGCAGAAUUUGGUGUAAUAAUCACUUCUCGACAGUUAUCCAACAGAGGAUUGAGCAUCA
# B9: chr14:73742652:73742653:-_ENSG00000133961_ENST00000557597|hu_hu|FALSE|FALSE (ssRNA)
# RNA: GGGAGUUCUACAGUCCGACGAUCCCCCUUUACCUUUGGCAAGAUUACUUACAACUCAUACAACUUCUUAAUAUCUGAGAACUAUUUAAAAUAUUCUAAAUGCAUAAAAAUAAAGAUUUUGGCUUUUGAUAUAUAUAAUAUUUACAACAGAGGAUUGAGCAUCA
# B10: chr15:66793352:66793353:-_ENSG00000174444_ENST00000568588|hu_hu|FALSE|FALSE (ssRNA)
# RNA: GGGAGUUCUACAGUCCGACGAUCCUUGAGGGAAGCGGCUUUACGCCAAGUGCCGUACAAUUCAUCUAACUUCCGGAAAGCACUUUCAGUCCAAAUGCAGAAACGUCCCACAUGCCCACCAGGAGCAAGCUUCAAAAUGUUCAGCAACAGAGGAUUGAGCAUCA
# B11: chr7:19737724:19737725:-_ENSG00000105849_ENST00000222567|hu_mus|FALSE|FALSE (ssRNA)
# RNA: GGGAGUUCUACAGUCCGACGAUCGAGCUUUAACAAUAUGAGUCAAGAGUAAAUGCAAUUGUUAACAUUUUCCACUGAACUGUAAUAAAAUAAUACUUUAAUACUGGCAUUUUCCAAAAUGUAUUUAUCAAUGUAUGAUUUUAGCAACAGAGGAUUGAGCAUCA
# B12: chr11:87793471:87793472:-_ENSMUSG00000020483_ENSMUST00000020775|mus_mus|mus_mus_mus_hu_False|28_58 (ssRNA)
# RNA: GGGAGUUCUACAGUCCGACGAUCUGGACUUGAAAAUAAAAGAAUAAGCUGGAUCCCCCACCCCCCCACAUUGUCAACCCUAUGCGAGAGUUUUGAAGGCGACUCAUGAAUCAGCAGAGCUCAAACGGCAAUGACCACCCCACCCAACAGAGGAUUGAGCAUCA
# B13: chr5:24093644:24093645:+_ENSMUSG00000038181_ENSMUST00000088295|mus_hu|FALSE|FALSE (ssRNA)
# RNA: GGGAGUUCUACAGUCCGACGAUCCUCCUUCUGCCUGCUCUUCAACUGUGAAGGUGUCGGAACUAACCCCCAGCCAAAACGGUAAUAAAUGAAACAAUCAAUUUCACUCACACUGGGAUUAUGGUCUGUCUUCCACUAAAAAGACAACAGAGGAUUGAGCAUCA
# B14: 90669621_90670016_1274_3pUTR_ENSG00000113369_ENST00000265138|human|control|control (ssRNA)
# RNA: GGGAGUUCUACAGUCCGACGAUCUCCUCUGUUACCACUUCUGCAUAGCUGGGUGGUGCUUCAGGUCUUUCAGGAAGUGAUAAACUGAGCCAGUUCAUAUUCAUGCUACACUGACUGCUUACACUUGAGGUUCUGCUACCAAAUCAACAGAGGAUUGAGCAUCA
# B15: chr7:102950833:102950834:+_ENSG00000105819_ENST00000453466|hu_mus|FALSE|FALSE (ssRNA)
# RNA: GGGAGUUCUACAGUCCGACGAUCGACCAUAUAGAGUCCCCAUAAUCCUGUGUCUGUAUAUGAAGUAUUGAAGGACUGGAAGCUGUGGCAGAGAUUGCCAUGGCAAGUGAGUUGGGCCAGCUUGCUAGAUAAAUUCAUUCCUCCCAACAGAGGAUUGAGCAUCA
# B16: chr14:76904430:76904431:+_ENSMUSG00000022010_ENSMUST00000022587|mus_mus|mus_mus_mus_hu_True|1_1 (ssRNA)
# RNA: GGGAGUUCUACAGUCCGACGAUCUGCAGCCAAAAACACCCUCGUGGAAAAAAAGAGGGAACACCAGCAGCCUUGUAUAAGCUAGAUAAAAUCUUCUGGCUUUCCGCAGCCCAGGGAGAAACAGAAAACGGCAGCCCUCGAGUGCAACAGAGGAUUGAGCAUCA
# B17: 9102711_9117871_144_CDS_ENSG00000178127_ENST00000318388|human|control|control (ssRNA)
# RNA: GGGAGUUCUACAGUCCGACGAUCCAUAACUGUCUUAUGCAAAUUCCUUACAUGUCUUCCCCAGUGGGCGGUGAGGCCAGCCGCCCGGGCCCGGAGCGCCGCGGAGAAGAACAUGGCGGGCCACACUGUUCACCUUCCCCAGCCCAACAGAGGAUUGAGCAUCA
# B18: chr17:65740002:65740003:+_ENSG00000130935_ENST00000581375|hu_hu|hu_hu_hu_mus_False|38_78 (ssRNA)
# RNA: GGGAGUUCUACAGUCCGACGAUCAACAAAUCUUUCUUCCCUGGACGAACAGGAAGACAUAAAAGAGAAAAAAUAUAUAUCCAUCAAGUUAGGUGUGUAAUAUCAGACUUUACUCCCAGCACUUUGGGAGGUGGAUCUCUGAGUCAACAGAGGAUUGAGCAUCA
# B19: chr1:16667403:16667404:+_ENSMUSG00000025940_ENSMUST00000065373|mus_mus|motif|central (ssRNA)
# RNA: GGGAGUUCUACAGUCCGACGAUCGUCAUAACCCAUUAGAUGGUUAUAGUCUUCAGGGUUUAAAAAGAGUGCUGGAUUAACGGAUAGCGAUUUUGUUUUAGCAUAAAAGCUGGUGAAUAUAUGUGCGCUCUCUGGAAUUGUCACCAACAGAGGAUUGAGCAUCA
# B20: chr9:72560005:72560006:+_ENSMUSG00000032216_ENSMUST00000034740|mus_mus|FALSE|FALSE (ssRNA)
# RNA: GGGAGUUCUACAGUCCGACGAUCAGCCUGGUCUGCAUUUUCAUCUUCUGAGCCAUUUUUAGGUAAAUAAGUCAUUUUUAAUCUCAGAUAACCUUUAACUCUUGAUUUGUGACUUCUUGGAUGAAGAACAAAAUCCUUAAAUGUCAACAGAGGAUUGAGCAUCA
# B21: chr3:152055631:152055632:+_ENSMUSG00000025437_ENSMUST00000117492|mus_hu|FALSE|FALSE (ssRNA)
# RNA: GGGAGUUCUACAGUCCGACGAUCAGAGUCAGGGUGAUUUAGGACAAUGAAAAAGUUUUCAAAGCAAAAGUAUUUACAACACUACAAAGGAUACUAUGGAUCUGCAUGUAGUGUAAAGAUUAAAGAUAACCUACUGAUUUCACACAACAGAGGAUUGAGCAUCA
# B22: chr3:138113954:138113955:+_ENSMUSG00000028138_ENSMUST00000005964|mus_mus|FALSE|FALSE (ssRNA)
# RNA: GGGAGUUCUACAGUCCGACGAUCCGAAGGAUCGAUUUUAGCAACAGAGAUGUCAGCCACAACUGUGUACUCGGAAAAUGUGCUAGUCCCCAUGAAGUGAAAAACAGACUUUCCUUUGCAGGUAAAUCUGCUAGUCCCAUCUGGCAACAGAGGAUUGAGCAUCA
# Molecular target: T1, UNK ZnF1-3
# Experiment: nsRBNS (natural sequence RNA bind-n-seq); RBNS binding buffer (assumed for nsRBNS): 25 mM Tris pH 7.5, 150 mM KCl, 3 mM MgCl2, 0.01% Triton X-100, 500 ug/ml BSA, 20 U/ml SUPERase-In, 4 C; UNK is unkempt and MSI1 is Musashi-1; names of the RNAs are library labels; protein concentration not given here; high values mean tight binding
row,Binder,binding signal
1,B1,1.14 enrichment R
2,B2,1.48 enrichment R
3,B3,1.95 enrichment R
4,B4,1.15 enrichment R
5,B5,0.967 enrichment R
6,B6,0.555 enrichment R
7,B7,1.04 enrichment R
8,B8,1.03 enrichment R
9,B9,1.07 enrichment R
10,B10,0.993 enrichment R
11,B11,0.585 enrichment R
12,B12,1.37 enrichment R
13,B13,1.34 enrichment R
14,B14,0.631 enrichment R
15,B15,1.14 enrichment R
16,B16,1.81 enrichment R
17,B17,0.918 enrichment R
18,B18,1.23 enrichment R
19,B19,0.874 enrichment R
20,B20,0.934 enrichment R
21,B21,0.866 enrichment R
22,B22,1.1 enrichment R
